From the supplement of paper PMC10126150
Values marked as one replicate rest on one cluster of the flow cell; about a third of the high ones do not repeat.

Test system: ATP
Assay: switch fluorescence ratio, 500 uM ATP over buffer (Cy3 cluster intensity, sum of 5 cycles each) (fold (ratio)); higher = stronger signal-on switching upon ATP binding; sequences stand for … in TCGTCGGCAGCGTCAGATGTGTATAAGAGACAGTTTTTTTTTTTTTTTTTTTTTTTTT…TC
Details: aptamer strand: ATP DNA aptamer (quencher-CACCTGGGGGAGTATTGCGGAGGAAGG + anchor), 100 nM annealed; ATP concentration: 500 uM; one replicate
Method in brief: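 Cy3-labelled switching-strand clusters on a modified Illumina MiSeq flow-cell were annealed to 100 nM quencher-labelled ATP aptamer, imaged in selection buffer, then imaged after 15 min with 500 uM ATP at 22 °C. Five buffer/ATP cycles ran, with NaOH stripping and re-annealing between them. The fluorescence ratio is summed target-cycle over summed buffer-cycle Cy3 intensity per cluster, averaged per switch-domain sequence. Clusters outside 100-1000 RFU were excluded.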
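Also: ATP exposure 15 min at 22 °C before imaging.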

Sequence	switch fluorescence ratio
CTCGGAAATA	1.34
AACAATAGCA	0.937
TAAGCACAGG	1.33
TAAGTAAGCT	1.07
CAGGCAACGG	1.07
AGGAAGGCGT	0.983
CATGTTGTG	1.02
TGTGTTTGGA	1.03
ATGGGTCGAT	1.04
AGCGTTCCCG	0.977
TGGAAGCATC	1.07
ATCCGGGTTT	0.982
GCACGCACTG	1.69
GGCCAATCTC	1.03
TCTTAGTGT	0.997
TTGGTTAGGC	0.983
TCAAGAGTAG	0.997
GCCGCGGATT	1.05
GAGTTGGGCC	1.02
GCTCCAACTT	1.1
TATGTGTTT	1.03
GAGCCAAGCA	1
AGCCGTCGGA	1
CCAAATCGAA	0.992
ACCTTGTAAG	1.01

Sequence	switch fluorescence ratio
ACGCTTTGGC	0.995
GGGATGCACG	0.939
GGTACTGTCT	1.03
CTGTATCACT	1.01
GAGCCATTAT	1.02
ATTGAGGAGT	1.03
AACGTTGTCA	1.04
CCATTACAGC	0.995
TACGGGCTAG	1.04
ACTTACGCGA	1.13
TTCTGTCATG	1.2
ATGGTCCGCG	1.08
TAGATTTGAA	0.984
CCTGATCAAA	1.01
CTCGGTCATG	1.05
GCGAACGTGC	1.12
CAGTTAGGTT	0.989
ATATGCATCG	1.05
ACCGCTTTGC	1.64
TTTGTTGGT	0.989
TTCAAGCATC	1.09
GGCATTTAAC	1.02
AGCGAAGTGG	1.08
TCCAATCTTG	1.03
TCCCTCTCGT	1.08

Sequence	switch fluorescence ratio
AAATTCCGGC	0.967
ACCATGACTC	1.15
GATGCAACTG	1.08
TACACATGGT	1.02
GCTATCCGAA	1.02
GAACGATTTT	0.907
AGGCCAGTTC	1.01
GGGTTAAGGT	0.99
CTACTATTGT	0.979
ACTAGGCTTT	0.981
ATTATGATGA	1.01
GATACTAAGT	1.01
TTGAAGTAA	0.992
AAAGGCTATG	0.979
GTATTCGCCA	1.03
AATGTCATTC	1.01
TCCGGCCAG	1.09
AGACGAGTTG	0.988
CGTCTCCCGT	1.04
TAAGAGCAAG	1.1
AGTCATAGTT	0.966
GGAGTAGTGT	1.01
AGAGTAGACC	0.997
ATCGACCACG	1.03
TACCTCAAG	1.1

Sequence	switch fluorescence ratio
AGACTGGTGC	1.1
TCATTTCACT	0.95
TCTATATTTT	0.963
GAAATTTCGA	0.959
TGCTGGGTAC	1.03
GTGAGGCTGA	1.05
GCATCATAGG	1.04
ATTATAAGTT	1.03
TTCATGGC	1
CGTTCTACTT	1.01
GCCTGACTCA	1.83
GGTCGCAATA	1.09
ATCTGGTAGC	0.952
CTAATATATT	1.02
CTGAGGATAC	2.52
CAAATATAAG	0.996
ACTTCGTGCG	1.05
TGTGTTACCG	0.973
CACTCTGGGG	1.04
AGACTGAAAC	1.05
GACAGACCAT	1.11
TGATAGATTC	0.982
ACAATTGATT	1.03
ATACAACTGT	1.09
AGACAGGGTT	1.05

Sequence	switch fluorescence ratio
AAATCCGTCA	1.06
TTCCAGTGGA	1.03
TAGTACGATA	1.11
AAATCGTAGC	1.03
GCGTTTTTGC	1.03
TCGTACCACT	1.01
TTGGGAGCAA	6.95
ACGTCGGACT	0.987
CAGGGTTGTA	0.942
AGGAATAAAT	0.988
GGCGGGCCCG	0.982
ACCGGTTCTT	1.01
TCATTATCCT	1.01
CTACCTGAGC	1.04
TAATGCAGCC	1.01
GGTATAAGAG	0.945
AGTGACCGCT	1.05
TGTCAGTCGC	0.986
ATGGTTATCG	0.981
ACGTTTGGTA	1
AGGGCCAGGC	1.01
TCGCCCGAGG	1.08
TGGTTCGCCC	0.97
CCTCTGCCGT	1.96
TTGAGTTCCC	0.995

Sequence	switch fluorescence ratio
GAGAGTCAGT	1.05
TTATACCTCC	1.33
ACAGAACATT	1.04
AGTCAGTACT	1.16
TTATAGTGTA	0.986
GCGGGTGGTT	1.03
GTATGGGGAA	1.01
ATTATGCATG	0.981
TGTACTATGT	1.04
GGATCTCATA	0.989
GAGTTGCCTC	0.991
GACTGACTCA	1.14
CTAAGGGATG	1.01
GGACTAGGGG	1.01
TGTTGAGAGC	1.01
CCTTGAAA	0.977
AGAAGGCGCA	0.996
GGCAGGCGCG	0.996
CTAATTAGAG	1.02
TGTACAGCGT	1
ACCCAGCTTT	1.03
CTAATGCGCC	1.01
ACAAGCGCTA	1.04
CCGGAAAACT	1.04
CTCTCAGCCG	0.972

Sequence	switch fluorescence ratio
CTAGAGCCGG	0.987
CTGGTGTAGA	1.01
TTACTGATA	1.02
GATCCTCAGA	0.936
TTCGCTAAGT	1.1
AAACGTTAGG	1.03
GGTAATCAGG	1.02
TTGGACTACA	1.01
TATTTTAAAG	0.992
ATCACGACTT	0.994
TAGCTTCACG	1.01
CTATGAGC	0.95
GTTAGCCTGC	1.01
ATAACGTGTT	0.982
AGTTAGTGAT	0.981
CAGCCCGGCG	1.04
GATTAAGTTA	0.992
TTGGGTCCGT	0.97
CATATAAGTT	1.01
GGATCTGCGG	1
TTCCGACGAG	1.4
ACCCGTTGCA	1.04
CTGGTGCGGC	0.988
CGGTATTTGA	1.07
GGACTCGTTC	0.953

Sequence	switch fluorescence ratio
ATGGTTTTTC	1.04
GCCCTAGTGG	1.03
CGAGTGGTGC	1.14
ACACCGAGTT	1.09
AAGGTGGATT	0.979
CGATAGTTCC	1.03
AAGTGACGGT	1.05
AGTATACCCC	1.09
CCCGTTAAAT	1.08
AAAAGTCCAG	1.01
CGTATTGAAC	1.02
TCTGATGTAG	0.99
TAAGAAGGAG	0.96
GACTGGGCCG	0.946
GTGGTGTTCC	0.98
ACCCATGACC	1.13
GAAGCGTAAC	2.28
AGTTTCCCGG	1
ACCAAAGGTA	0.994
ATCACACCTT	1.19
CGGACCGGCA	1.02
AACGTTTACC	1.13
ACGGAGCCTC	2.91
CACGGTTCGT	1.02
CGGGAAAGGA	1
